Results from article PMC4336329 (PLoS ONE, 2015).
Hit rate of the full screen: of about 310,000 compounds, about 14,000 (4.5%) showed an effect of 50% or more. The effect is printed as a negative number. The list shows a part of the results.

target: human ether-à-go-go-related gene (hERG) potassium channel (human, UniProt Q12809); test: primary screen, population patch clamp on CHO cells stably expressing hERG
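Also: peak tail current of the secondary pulse compared with the same well before compound.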

Sequence of human ether-à-go-go-related gene (hERG) potassium channel (Q12809 whole entry, looked up): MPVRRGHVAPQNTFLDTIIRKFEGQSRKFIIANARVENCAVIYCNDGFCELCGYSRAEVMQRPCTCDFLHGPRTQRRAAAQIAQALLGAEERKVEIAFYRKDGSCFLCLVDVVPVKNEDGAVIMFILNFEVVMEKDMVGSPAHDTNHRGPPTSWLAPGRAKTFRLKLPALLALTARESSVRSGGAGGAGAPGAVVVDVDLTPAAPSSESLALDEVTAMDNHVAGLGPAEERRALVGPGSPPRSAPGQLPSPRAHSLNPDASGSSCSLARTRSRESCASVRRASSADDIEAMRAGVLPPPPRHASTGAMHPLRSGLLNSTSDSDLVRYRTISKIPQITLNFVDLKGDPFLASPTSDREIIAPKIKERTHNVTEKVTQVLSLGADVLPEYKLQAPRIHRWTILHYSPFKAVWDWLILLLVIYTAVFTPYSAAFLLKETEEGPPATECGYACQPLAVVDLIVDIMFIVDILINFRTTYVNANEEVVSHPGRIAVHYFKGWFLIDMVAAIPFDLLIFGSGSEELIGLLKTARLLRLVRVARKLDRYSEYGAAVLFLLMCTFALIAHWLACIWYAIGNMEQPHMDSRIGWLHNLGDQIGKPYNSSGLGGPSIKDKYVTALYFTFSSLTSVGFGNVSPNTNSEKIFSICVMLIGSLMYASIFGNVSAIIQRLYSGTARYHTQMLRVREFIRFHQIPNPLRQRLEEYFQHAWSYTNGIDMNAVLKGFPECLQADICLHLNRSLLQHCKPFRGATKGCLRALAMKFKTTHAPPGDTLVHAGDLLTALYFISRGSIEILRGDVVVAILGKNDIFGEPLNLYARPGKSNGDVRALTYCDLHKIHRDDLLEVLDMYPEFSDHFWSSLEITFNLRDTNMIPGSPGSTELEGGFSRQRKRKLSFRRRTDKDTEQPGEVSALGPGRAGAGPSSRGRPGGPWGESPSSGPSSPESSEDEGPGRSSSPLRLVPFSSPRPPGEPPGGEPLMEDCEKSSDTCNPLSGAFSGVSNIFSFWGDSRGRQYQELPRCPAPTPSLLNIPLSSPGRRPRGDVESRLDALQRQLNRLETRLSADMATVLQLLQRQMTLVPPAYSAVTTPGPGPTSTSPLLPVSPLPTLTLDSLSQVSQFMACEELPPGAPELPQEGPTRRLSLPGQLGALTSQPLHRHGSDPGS

SMILES	hERG current change (%, negative = inhibition) at 10uM [%]
CCOc1ccc(OCC)c(NC(=O)CSc2nc3ccccc3c(=O)n2C)c1	5.03
COc1ccc(CC(=O)Nc2nn(C)c3nc4c(C)cccc4cc23)cc1	-1.44
O=C(Nc1ccc(F)cc1)Nc1csc2ccccc12	2.24
COCCCNC(=O)C1CCN(c2ncccn2)CC1	6.48
OC1(Cc2cc(-c3ccccc3)no2)CCN(CCCc2ccccc2)CC1	-77
CCNC(=O)COC(=O)C1CCN(S(=O)(=O)c2ccc3c(c2)OCCO3)CC1	4.94
CN(C)S(=O)(=O)c1ccc2c(c1)C(=NNC(N)=O)c1cc(S(=O)(=O)N(C)C)ccc1-2	9.19
Cc1nc(-c2ccc(NS(C)(=O)=O)cc2)cs1	0.921
CCCCOC(=O)Nc1cc(C(=O)OC)ccc1C(=O)OC	-18.4
CC(C)c1[nH]nc2c1C(Cc1ccccc1)C(C#N)=C(N)O2 (stereo not shown)	3.09
CSCCC(NC(=O)c1cccc(C)c1)C(=O)O (stereo not shown)	29.9
O=C(Cc1cccs1)N(c1ccccc1)C1C=CS(=O)(=O)C1 (stereo not shown)	10.6
Cc1ccccc1OCC(=O)N/N=C/c1ccc([N+](=O)[O-])o1	-4.18
NS(=O)(=O)c1cc([N+](=O)[O-])ccc1NCc1cccnc1	-14.5
COc1ccc(C(=O)N=C2SC3CS(=O)(=O)CC3N2c2ccc(C(C)=O)cc2)cc1 (stereo not shown)	11.7
Nc1nc(NCCO)nc(NCc2ccccc2)c1[N+](=O)[O-]	7.37
Cc1cc(NC(=O)CCN2CCC(C)CC2)ccc1Br.Cl	-57.6
CC(C(=O)c1c[nH]c2ccccc12)N1CCN(C(=O)c2ccco2)CC1 (stereo not shown)	-8.49
Br.CN=c1nc(-c2ccccc2)n(-c2ccccc2)s1	-21.9
O=C1NC(C(=O)O)=CC(c2ccc([N+](=O)[O-])cc2)N1 (stereo not shown)	14.4
Cc1ccc(S(=O)(=O)CC(=O)N(CCCN2CCOCC2)c2nc3c(F)cccc3s2)cc1.Cl	-18.1
O=C(CCNC(=O)c1ccco1)Nc1ccccc1N1CCOCC1	18.8
COc1ccc(NC(=O)COC(=O)C2CCN(S(=O)(=O)c3ccccc3)CC2)cc1Cl	-21.2
CCCCc1c(O)cc(C)[nH]c1=O	21.4
O=C(/C=C/c1ccco1)NC(=S)Nc1cc(C(F)(F)F)ccc1N1CCOCC1	17.4
